Laboratory results published in publication PMC12040169 (PLOS Biology, 2025).
This is one part of the list.

What follows are molecules tested on T1, C. trachomatis L2/434/Bu expressing GFP (CTL2-GFP). Details: total inclusion area; 28.5 h, 10 µM; inhibitor.
T1 construct: L2/434/Bu GFP intracellular growth in HeLa cells
Parameters: species or system HeLa; C. trachomatis total inclusion area by high-content imaging, normalised to DMSO
Summary of the method: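 High-content images of fixed, Hoechst-stained infected cultures supply inclusion area and count (growth) plus nuclei number (viability), complementing bulk GFP/resorufin fluorescence. MIC determination is unchanged from the primary assay.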

SMILES	% of control remaining
COc1cc(S(=O)(=O)NCc2ccncc2)c(C)cc1C [CBK269988]	62.6285
CCOC(=O)C1(C2CCCCC2)CCN(C(=O)c2cscn2)CC1 [CBK137101]	86.3278
Cc1cc(C)c2c(N)c(C(=O)C(C)(C)C)sc2n1 [CBK115341]	89.8402
O=C(O)c1cccc2c1C(=O)N(Cc1cccnc1)C2 [CBK291193]	111.743
O=C(O)CNS(=O)(=O)c1cccc2cccnc12 [CBK034462]	106.599
COc1cc(C(=O)N2CCC3(CC2)CC(=O)c2cc(C)ccc2O3)cc(OC)c1C [CBK167805]	40.9128
CCCn1c(SCC(=O)c2ccc(CCNC(C)=O)cc2)n[nH]c1=O [CBK296965]	90.8853
COc1ccc(-c2cnc(NCC3CC3)c(C(=O)NCc3ccccc3SC)c2)cc1 [CBK076437]	73.017
Cc1cc(C)nc(N2CCC(CC(=O)NC(C)CCN3CCCCCC3)CC2)n1 (stereo not drawn) [CBK285993]	130.884
OCCN(Cc1ccncc1)CC1(c2ccc(Cl)cc2)CC1 [CBK282782]	59.1188
COc1ccc(CCNc2nc3c(c(=O)n(C)c(=O)n3C)n2Cc2ccccc2Br)cc1OC [CBK267495]	88.1474
CCCCC(O)C[N+]1(C)CCC(c2ccccc2)CC1 (stereo not drawn) [CBK006696I]	40.5795
O=C(NC1CCN(CC2(c3ccccc3)CC2)CC1)C1CCOCC1 [CBK285352]	85.5759
COc1ccc([C@@]23CCC(NC(=O)Nc4ccc5c(c4)Cc4ccccc4-5)C[C@@H]2N(C)CC3)cc1OC (stereo partly drawn) [CBK047550T]	42.9103
CN(C)CC(C)(C)CNC(=O)c1cc(C(=O)c2ccc(Cl)cc2Cl)c[nH]1 [CBK107416]	87.0491
COc1ccc(C)cc1S(=O)(=O)N1CCc2c(CN3CCOCC3)cccc21 [CBK113630T]	100.93
CC(C)(C)C(=O)CSc1nnc(Cn2cnc(Cl)c2Cl)o1 [CBK011055]	90.8001
O=C(c1cccnc1NCc1ccc2c(c1)OCO2)N1CCNCC1 [CBK156112T]	97.9993
Cc1cccc(-c2cc(C(=O)Nc3sc4c(c3C#N)CCCCCC4)c3ccccc3n2)c1 [CBK262632]	95.67
N#Cc1ccc(-n2ncc(-c3cccc(C(F)(F)F)c3)n2)cc1 [CBK112675]	55.4095

SMILES	% of control remaining
O=C(CCSc1nc(-c2ccco2)cc(C(F)(F)F)n1)Nc1ccc2c(c1)OCO2 [CBK267627]	94.9846
Cc1ccc(-c2nc3ncccc3o2)cc1NC(=O)c1cccnc1 [CBK268774]	131.55
O=C(Cn1c(-c2cccs2)cc2cccnc21)N1CCCCC1 [CBK282619]	95.2132
Cc1cccc(CC(=O)N2CCC(c3ncc(C(=O)Nc4ccc(F)cc4)c(C)n3)CC2)c1 [CBK285885]	96.9382
CC(=O)Nc1ccc(C(=O)N(Cc2ccccn2)CC2CCCO2)cn1 (stereo not drawn) [CBK306784]	61.4147
Cn1ccc(C(=O)N2CCC[C@H](C(=O)c3ccc(F)cc3)C2)n1 [CBK284333]	85.6816
O=C1CN(C(=O)Nc2ccc3c(c2)OCCO3)CCN1 [CBK155860]	80.6551
Cn1ccnc1CNc1nc(C(C)(C)C)nc2c1cnn2C [CBK306894]	59.488
Nc1ccc(C(=O)Nc2ccc(Nc3cc(-c4cccnc4)ncn3)cc2)cc1 [CBK037823]	100.466
N#Cc1cc2c([nH]c1=S)CCN(Cc1ccccc1)C2 [CBK288378]	108.057
CN(C)CCn1c2c(c3ccccc31)CCCn1nnnc1-2 [CBK267713C]	95.7049
CC(C)(CO)CNc1cncc(-c2cc3ccccc3o2)n1 [CBK066029]	92.5009
Cc1csc(-c2ccc(C(=O)N(C)CCN(C)C)c(NCC3CC3)n2)c1 [CBK106279]	84.745
CCN1CCN(c2ccc3nnc(C(C)C)n3n2)CC1 [CBK287974]	100.631
Cc1cnc2c(C(=O)N3CCCC3c3ccccn3)cnn2c1 (stereo not drawn) [CBK304612]	12.7598
COc1cc(C)nc(NC(=O)Nc2cccc(Cl)c2)n1 [CBK269828]	98.0847
CN(C)CCCN[C@H]1CC[C@@H](c2ccccc2)CC1 [CBK016465]	113.461
CCOC(=O)C1(C2CCCCC2)CCN(C(=O)CCC(=O)O)CC1 [CBK136939]	89.9556
Cc1ccc(C)c(NC(CC(=O)c2ccccc2)C(=O)O)c1 (stereo not drawn) [CBK265485]	104.871
